Measured values as given in publication PMC12136788.
The list shows a part of the results.

T1: UNK ZnF1-3 (human, UniProt Q9C0B0 31-174)
T1 sequence: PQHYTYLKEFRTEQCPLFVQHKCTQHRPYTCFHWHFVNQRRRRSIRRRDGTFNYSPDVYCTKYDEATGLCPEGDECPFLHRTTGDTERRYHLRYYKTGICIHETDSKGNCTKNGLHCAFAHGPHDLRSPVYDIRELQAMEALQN

B1: chr19:8913112:8913113:-_ENSMUSG00000071658_ENSMUST00000096259|mus_mus|FALSE|FALSE (ssRNA)
RNA: GGGAGUUCUACAGUCCGACGAUCAAGCUGGCCUCAAUCUUAAGCUGUUCCACCAUCUUGCGUGCUUGACCAAUACUCAUAGUGCUGUUAACGGGGGUCUCCCCUUUCAUCCUGAAGUAACAGCAGCGGCAGCCAGGGAUGUAGCAACAGAGGAUUGAGCAUCA
B2: chr5:36177297:36177298:+_ENSG00000145604_ENST00000274255|hu_hu|FALSE|FALSE (ssRNA)
RNA: GGGAGUUCUACAGUCCGACGAUCCUUUAGCAUGACACUAUCACUUAAGUCUAGAUGGACAAGAUUGGGGCAUCUUCUAACUAAAGUAGAGAGAUCUGAUUUCUGGAGAUUCUUUCUGUAGCCGCUAAGAUUCAGCUGGGUGAUCAACAGAGGAUUGAGCAUCA
B3: chr12:48362563:48362564:+_ENSG00000134291_ENST00000256686|hu_hu|hu_hu_hu_mus_False|8_68 (ssRNA)
RNA: GGGAGUUCUACAGUCCGACGAUCUCCGUCAAGCCCUUCGAUAGACCCUUGCGGGGGAAACUGUAAUAAUUCUAACUGGGGAAGGAAAAGAAACGCCAAAAACUUUCCAAAAAGCGGGGGUGGGGUGUCCCAGGCCUGGGAGGUCAACAGAGGAUUGAGCAUCA
B4: chr4:115894766:115894767:+_ENSMUSG00000028698_ENSMUST00000030464|mus_hu|mus_mus_mus_hu_True|98_98 (ssRNA)
RNA: GGGAGUUCUACAGUCCGACGAUCUUCCACACGGAAAGUACUUGGGGGUUUUCCAACGGCCAGUACCAGUCCGGCCAAACUACCCGAACAGGGUCCUCCCCCUCUCUCCUACAGAACACAACAAAAUGCCCCCGAACUUUCAAGCAACAGAGGAUUGAGCAUCA
B5: chr5:128440902:128440903:+_ENSG00000066583_ENST00000173527|hu_mus|hu_hu_hu_mus_True|8_98 (ssRNA)
RNA: GGGAGUUCUACAGUCCGACGAUCUUGAACGGUGCUGCCAAGACCUUUGGGGUAUUGUUCCGUUAUGAUAACUGGAAUCCCUAAGAUCCGAGCUCCUUGCAACAGUCUCUGUCCCACACUAAUGAUGUCCCCAAAAUAUUUGAUCAACAGAGGAUUGAGCAUCA
B6: chr4:33332862:33332863:-_ENSMUSG00000040128_ENSMUST00000049357|mus_hu|FALSE|FALSE (ssRNA)
RNA: GGGAGUUCUACAGUCCGACGAUCAUAUACAAAACACCUGCAAUGUGGGCAGGGCAAAAUACAUACUUUCAUAACAAAACUAUAAUAUACCUCUCAAGUAUGAACAAUAUACACAUAAUACAUGGUAUACAGUAUUUACAAAAUCAACAGAGGAUUGAGCAUCA
B7: chr4:39507275:39507276:-_ENSG00000109814_ENST00000316423|hu_mus|FALSE|FALSE (ssRNA)
RNA: GGGAGUUCUACAGUCCGACGAUCACUGGAGGAUUCUCUGGUAUCACCAGUAUCCUUUUUGAAUGCAAACCCCAAGAUAGCUAUCUUCUUAUCGGUCACUGUAUUAAACAGGCUAUCUAUGAUCCGUGAUGCAAACCUCCUCCUCAACAGAGGAUUGAGCAUCA
B8: chr1:220276048:220276049:+_ENSG00000067704_ENST00000302637|hu_hu|hu_hu_hu_mus_True|58_78 (ssRNA)
RNA: GGGAGUUCUACAGUCCGACGAUCGCAAAUUGCCUGGUUGGCGGGAAUUGUCCAAGGUUGUGUGGUCCAAACUAAAAUACUAACAGGGGAUGAGGCAUCUGUAAGAGACUCCAACUUCGGAGGAGGUCUCAGGAGGGGGAAUCUCAACAGAGGAUUGAGCAUCA
B9: chr12:16048344:16048345:+_ENSG00000023734_ENST00000419869|hu_hu|hu_hu_hu_mus_True|1_68 (ssRNA)
RNA: GGGAGUUCUACAGUCCGACGAUCAGAUCGUCCAUAAGUAAUAACCAAAAUCUCUCCUUCAGGAAUAUAUUCCAUACUGCUAACAGACAUAUUAAAAUUCAGAGAUUUCACUUCUGUCAUUGUGGCAUGAUCCCAGAGUCGAACCAACAGAGGAUUGAGCAUCA
B10: chr2:9570881:9570882:+_ENSG00000119203_ENST00000238112|hu_mus|hu_hu_hu_mus_False|28_98 (ssRNA)
RNA: GGGAGUUCUACAGUCCGACGAUCACUUGUCUUCUGAAGAAACCAGGGCAGGGCUCCACAGUGAUCCAAAUGGAAAUGACUGAUCAACAGAAGGUCGAUCUCAGCUGGGUCAAUUAAGUCAAUGUAAGGAAGGGCAUCCAUUCCCAACAGAGGAUUGAGCAUCA
B11: chr1:109605286:109605287:-_ENSG00000197780_ENST00000461096|hu_mus|hu_hu_hu_mus_True|18_88 (ssRNA)
RNA: GGGAGUUCUACAGUCCGACGAUCAAGUUUCAGAGUAACAUUCAGUAUACUUAAAUCAUGCAAUUAUCCUUAUUAUAAGCUAAGCAGAAUAAUAAUUUAAUACCGUAAGUGAACUACCACAAAACCUUGAACCGCGAAAAUGGUCAACAGAGGAUUGAGCAUCA
B12: chr1:46159212:46159213:+_ENSG00000159596_ENST00000372025|hu_mus|hu_hu_hu_mus_True|8_18 (ssRNA)
RNA: GGGAGUUCUACAGUCCGACGAUCUCUGAUCCCUCCCAAGAAAGCUAGGAAACCGGCUCCAUAAGCCAUCUGAGUGAAAGCUAGGACGGGGAUAUAAGACUUUGUUAUUACCAUGAGCAGUGGUGGAGCAACGAAGGGGAUUAACAACAGAGGAUUGAGCAUCA
B13: chr6:75950928:75950929:-_ENSG00000112695_ENST00000509698|hu_mus|FALSE|FALSE (ssRNA)
RNA: GGGAGUUCUACAGUCCGACGAUCUGGCAUCCCAUUAUCCUCCUGAAACAGCUUUUGUUUCUCUGGAACCUUGUUUUCAAAAUGCCUUCGUGAAGUGGUGCUGAUGGUCCUCUGGGCAAUCUGACGAAGGGCCAGCAGAUUCCGCAACAGAGGAUUGAGCAUCA
B14: chr3:150459880:150459881:-_ENSG00000181788_ENST00000312960|hu_hu|FALSE|FALSE (ssRNA)
RNA: GGGAGUUCUACAGUCCGACGAUCUUGUGAAGACAUAUGGAAUAAAACAUCUAUAAAAACCUUUAUUAAACAUAGAGCACUAUGCCCAAAUAAUUUUGAAGGUUUACGAAAGUCACAUCAUGGACAACAUGUAGAAAUAGUAACCAACAGAGGAUUGAGCAUCA
B15: chr8:104439394:104439395:+_ENSG00000164934_ENST00000297579|hu_mus|motif|central (ssRNA)
RNA: GGGAGUUCUACAGUCCGACGAUCGCUGUCAAAUCCCCAGUUCAUUGAGCACACAGGGCUGGUUCUUUGUUCAUCCCAAAUGUCGGCUUGCUGUCCACAAGUGGCAAAGACUGGGUCUUUCCAGUGAUGAUCAAUGCCAGUAUACAACAGAGGAUUGAGCAUCA
B16: chr18:25532265:25532266:-_ENSG00000170558_ENST00000399380|hu_hu|FALSE|FALSE (ssRNA)
RNA: GGGAGUUCUACAGUCCGACGAUCGGAAUUAAGGGAGCUCAAGGACCCAGCAGUGGAGCCACUGCCUUCAUAGUCAAACACUAACAGGGAGUCAUAUGGUGGAGCUGUGGGGUCAUUGUCAGCCGCUUUAAGGCCCUCAUUAAUCAACAGAGGAUUGAGCAUCA
B17: chr4:117809766:117809767:-_ENSMUSG00000033326_ENSMUST00000106406|mus_hu|motif|central (ssRNA)
RNA: GGGAGUUCUACAGUCCGACGAUCAGGCAAACAAAUUCUUGAGGAGCAAAAACCUGUUUAACCCCUUCAGUAUUGCCCUCGGGUCCCACCCCCCACCCCAAAAUCAGCUCCCUCCCACCUACAGUGGGCCUCCAAUGGCCCCAGCAACAGAGGAUUGAGCAUCA
B18: chr3:89559821:89559822:-_ENSMUSG00000027950_ENSMUST00000029562|mus_hu|FALSE|FALSE (ssRNA)
RNA: GGGAGUUCUACAGUCCGACGAUCUGAAGACCUCGGCUAGCUCUGUCAUCUUCAUUUUGUAGAUGCAGCACAGCCGGGUCUUAAAAGAGGUCAAACAGCAGACAAGCUCUAGGCCUGUUUACUCGUGUGUUAACCGGGUCAUGGCAACAGAGGAUUGAGCAUCA
B19: chr7:150915252:150915253:-_ENSG00000033050_ENST00000287844|hu_mus|motif|central (ssRNA)
RNA: GGGAGUUCUACAGUCCGACGAUCCUUCCCUGCUCCAUUGGGUCCUACCAGAGCCACUCGUGUGUCAAGAUCAAUACCAAAUUCGGGAUUAUUGUAGAUGCAAGGCCCGUCUUUCGUAUAUUUGAAGCUCACGUUCUGCACCAUCAACAGAGGAUUGAGCAUCA
B20: chr17:62495991:62495992:-_ENSG00000108654_ENST00000581693|hu_hu|FALSE|FALSE (ssRNA)
RNA: GGGAGUUCUACAGUCCGACGAUCCACCAUAAUUACUGCUGCACUGCAGUCAUUUCUGCAAUUCCCAUGUUUCUUAAAUAACUAUCUUGUCAGAUAACACACAAUAUAAAGAGCAAUUAUGAAAAACAGACAUUUACAUAUACUCAACAGAGGAUUGAGCAUCA
B21: chr3:176767854:176767855:-_ENSG00000177565_ENST00000430069|hu_hu|hu_hu_hu_mus_False|28_48 (ssRNA)
RNA: GGGAGUUCUACAGUCCGACGAUCGACAUCCUUGUUACUGGGCACGUCCUGCCCUCCUUCCCGUAUGCAGUGUCUAAGCACGAGCUGUGUAGAGCCACUCGUGCUGUUCUCACUAAGGUUCCAGAUUCUUGCCGUGGAGUCUCCCAACAGAGGAUUGAGCAUCA
B22: chr16:32386223:32386224:+_ENSMUSG00000053774_ENSMUST00000115151|mus_mus|motif|central (ssRNA)
RNA: GGGAGUUCUACAGUCCGACGAUCAAUACAAUUUGAAUGUGACUUUUGUUGGCAGAAAAAAAACCUCACAUCUGAAGAUUACGGGAAAUCUCUCUUAAUAACUGUUGUCGUAUGAACCAAAUUUGAAGGUCUUCCUCUUAGAGACAACAGAGGAUUGAGCAUCA

Each binder was assayed against T1, UNK ZnF1-3 (assay: nsRBNS (natural sequence RNA bind-n-seq); RBNS binding buffer (assumed for nsRBNS): 25 mM Tris pH 7.5, 150 mM KCl, 3 mM MgCl2, 0.01% Triton X-100, 500 ug/ml BSA, 20 U/ml SUPERase-In, 4 C; UNK is unkempt and MSI1 is Musashi-1; names of the RNAs are library labels; protein concentration not given here; high values mean tight binding).
B1 was tested, and the binding signal was 1.14 enrichment R. With B2 the binding signal was 0.807 enrichment R. Work on B3 yielded a binding signal of 2.08 enrichment R. For B4, the binding signal was 1.15 enrichment R. With B5 the binding signal was 0.629 enrichment R. B6 showed a binding signal of 0.688 enrichment R. Work on B7 yielded a binding signal of 0.95 enrichment R. B8 showed a binding signal of 2.17 enrichment R. B9 was tested, and the binding signal was 1.02 enrichment R. For B10, the binding signal was 1.7 enrichment R. In the case of B11, the binding signal is reported as 0.64 enrichment R. In the case of B12, the binding signal is reported as 2.28 enrichment R. B13 was tested, and the binding signal was 0.788 enrichment R. Binder B14 has a binding signal of 0.785 enrichment R. With B15 the binding signal was 1.04 enrichment R. In the case of B16, the binding signal is reported as 1.27 enrichment R. B17 showed a binding signal of 1.02 enrichment R. B18 showed a binding signal of 0.55 enrichment R. B19 gave a binding signal of 1.11 enrichment R. In the case of B20, the binding signal is reported as 0.921 enrichment R. For B21, the binding signal was 0.469 enrichment R. B22 was tested, and the binding signal was 0.947 enrichment R.
